According to the supplement of paper PMC7125110:
± gives the standard error. This sample is rich in variants without activity.

B1: glmS ribozyme (parent)
chain: AUAAAAGCGCCAGAACUACAGAAAUGUAGUUGACGAGGAGGAGGUUUAUCGAAUUUUCGGCGGAUGCCUCCAAA

Tests used:
Conditions in all cases: with glucosamine-6-phosphate
glucosamine-6-phosphate [1] = variants of: B1; test: self-cleavage kobs at 640 uM GlcN6P; higher = faster cleavage; RNA array
In short: (§1)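 Glucosamine-6-phosphate (40 μM to 10 mM) in HEPES/KCl/Mg(OAc)2 buffer was flowed over sequenced MiSeq chips, and tiles were imaged over ~14 h. Barcoded ribozyme variants there had been transcribed in situ by E. coli RNA polymerase and were tracked through a hybridised Cy3 probe at 37 °C. One- or two-exponential decay fits to per-tile medians, normalised to baseline and to non-cleaving reference variants, gave kobs. kcat and KM came from weighted Michaelis–Menten fits across concentrations.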

glucosamine-6-phosphate [2] = variants of: B1; test: self-cleavage kobs at 2500 uM GlcN6P; higher = faster cleavage; RNA array
In short: as §1

glucosamine-6-phosphate [3] = variants of: B1; test: self-cleavage kobs at 160 uM GlcN6P; higher = faster cleavage; RNA array
In short: as §1

glucosamine-6-phosphate [4] = variants of: B1; test: self-cleavage kobs at 10000 uM GlcN6P; higher = faster cleavage; RNA array
In short: as §1

Row | Variant | self-cleavage kobs at 640 uM GlcN6P (glucosamine-6-phosphate [1]) [s⁻¹] | self-cleavage kobs at 2500 uM GlcN6P (glucosamine-6-phosphate [2]) [s⁻¹] | self-cleavage kobs at 160 uM GlcN6P (glucosamine-6-phosphate [3]) [s⁻¹] | self-cleavage kobs at 10000 uM GlcN6P (glucosamine-6-phosphate [4]) [s⁻¹]
1 | U47A G63A | < 1e-05 |  |  | 
2 | U47A U56A C70U | 0.00117 ± 0.00047 | 0.00157 ± 0.0006 |  | 
3 | U47A U56C | 0.000703 ± 8.8e-05 | 0.00144 ± 0.00021 | 0.000111 ± 2.1e-05 | 0.00257 ± 0.00031
4 | U47C C50A U69G | 5.61e-05 ± 2.5e-05 | 9.43e-05 ± 2.6e-05 |  | 
5 | U47C C61U U69A | < 1e-05 |  | < 1e-05 | 
6 | U47C C68G | 3.62e-05 ± 7.3e-06 | 5.33e-05 ± 1.1e-05 |  | 6.6e-05 ± 7.8e-06
7 | U47C G62U | < 1e-05 | < 1e-05 | < 1e-05 | < 1e-05
8 | U47C U54G G60A | < 1e-05 |  |  | 
9 | U47G A52U | 6.99e-05 ± 7.7e-06 | 0.000169 ± 2e-05 |  | 0.000234 ± 2.6e-05
10 | U47G A52U C68G | 0.000113 ± 4.9e-05 |  |  | 
11 | U47G C70U C71G | 0.000118 ± 2.3e-05 |  |  | 
12 | U47G G62U U65A | < 1e-05 | < 1e-05 |  | 
13 | U47G U54C | 0.0026 ± 0.00053 | 0.00468 ± 0.00094 | 0.000851 ± 0.00032 | 0.0139 ± 0.0032
14 | A48C C70U | 8.59e-05 ± 1.5e-05 | 0.000254 ± 3.9e-05 |  | 0.000401 ± 7.4e-05
15 | A48C G51A C70U | < 1e-05 | < 1e-05 |  | < 1e-05
16 | A48C G60C | < 1e-05 | < 1e-05 |  | < 1e-05
17 | A48C G66C C71G | < 1e-05 |  | < 1e-05 | 
18 | A48C U65C | < 1e-05 |  | < 1e-05 | 
19 | A48G A53U G62C | < 1e-05 |  | < 1e-05 | < 1e-05
20 | A48G U54A G63C | < 1e-05 | < 1e-05 | < 1e-05 | 
21 | A48U A64G C67G | < 1e-05 |  | < 1e-05 | 
22 | A48U C71G | 4.04e-05 ± 7.5e-06 | 6.5e-05 ± 9.8e-06 |  | 3.69e-05 ± 8e-06
23 | A48U G51U U55C | < 1e-05 |  |  | 
24 | A48U U57A G59U | < 1e-05 | < 1e-05 | < 1e-05 | 
25 | U49A A53U G62A | < 1e-05 | < 1e-05 |  | 
26 | U49A G51C U55A | < 1e-05 | < 1e-05 |  | 

Row | Variant | self-cleavage kobs at 640 uM GlcN6P (glucosamine-6-phosphate [1]) [s⁻¹] | self-cleavage kobs at 2500 uM GlcN6P (glucosamine-6-phosphate [2]) [s⁻¹] | self-cleavage kobs at 160 uM GlcN6P (glucosamine-6-phosphate [3]) [s⁻¹] | self-cleavage kobs at 10000 uM GlcN6P (glucosamine-6-phosphate [4]) [s⁻¹]
27 | U49A U56A C58U G60A C67U | < 1e-05 |  |  | 
28 | U49A U57C G62A | < 1e-05 |  |  | 
29 | U49C A52C A64U | < 1e-05 | < 1e-05 | < 1e-05 | 
30 | U49C G51C | < 1e-05 | < 1e-05 | < 1e-05 | 
31 | U49C U54A G63U | < 1e-05 | < 1e-05 |  | 
32 | U49C U55G | < 1e-05 | < 1e-05 |  | 
33 | U49C U69C C70U | < 1e-05 |  |  | 
34 | U49G C61U C71A | < 1e-05 | < 1e-05 |  | < 1e-05
35 | U49G G51U | < 1e-05 | < 1e-05 | < 1e-05 | < 1e-05
36 | U49G G60A | < 1e-05 | < 1e-05 | < 1e-05 | < 1e-05
37 | U49G G60C | < 1e-05 | < 1e-05 | < 1e-05 | 
38 | U49G G60U C68G | < 1e-05 | < 1e-05 |  | 
39 | U49G G63A G66U | < 1e-05 | < 1e-05 |  | 
40 | U49G U55A | 0.000213 ± 2.8e-05 | 0.000539 ± 5.5e-05 | 6.19e-05 ± 9.7e-06 | 0.000891 ± 0.00013
41 | C50A | 1.25e-05 ± 3.1e-06 | 2.31e-05 ± 2.1e-06 |  | 2.49e-05 ± 1.3e-06
42 | C50A U57C | < 1e-05 |  |  | 
43 | C50G U57A A64U | 0.000127 ± 5.8e-05 |  |  | 
44 | C50U A52U U54C | < 1e-05 | < 1e-05 | < 1e-05 | 
45 | C50U C70G | 8.51e-05 ± 1.6e-05 |  | 0.000293 ± 0.00013 | 
46 | C50U G51C A64U | < 1e-05 | < 1e-05 |  | 
47 | C50U G59U G62C | < 1e-05 |  |  | 
48 | C50U U54A U56A | < 1e-05 |  |  | 
49 | G51A G59A | < 1e-05 |  |  | < 1e-05
50 | G51A G62U C67A | < 1e-05 | < 1e-05 |  | 
51 | G51A G63C C67A U69C | < 1e-05 |  |  | 
52 | G51A U55G U56G G62C | < 1e-05 | < 1e-05 | < 1e-05 | 
